± gives the standard deviation of the averaged measurements. Over roughly 33,000 sequences, “E-score (dimensionless, -0.5 to 0.5)” has its median near -0.046; the highest 2% begin near 0.36. Some of the results follow.
Tested on: T1, SpTbr T-box DNA-binding domain (GST fusion)
T1 sequence: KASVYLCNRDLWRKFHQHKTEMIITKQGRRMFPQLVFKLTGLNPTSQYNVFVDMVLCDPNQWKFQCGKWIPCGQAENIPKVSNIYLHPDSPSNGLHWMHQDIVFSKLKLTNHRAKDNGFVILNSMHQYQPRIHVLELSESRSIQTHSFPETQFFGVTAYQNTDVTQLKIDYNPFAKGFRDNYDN
Assay: PBM E-score of 8-mer (E-score (dimensionless, -0.5 to 0.5)); Tbr is Tbrain of the sea star Patiria miniata (Pm) or the sea urchin Strongylocentrotus purpuratus (Sp); higher = stronger binding preference; most listed sequences are background and not binding sites
Conditions: the construct has about 5 more residues each side
Method in brief: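 Each ungapped 8-mer received an enrichment E-score from the Universal PBM Analysis Suite, averaged over duplicate arrays. The proteins were Tbr T-box DNA-binding domains, covering the whole T-box plus about five flanking residues, fused to GST and expressed in BL21 E. coli at 20 °C before glutathione affinity purification. Universal Agilent oligonucleotide arrays were made double-stranded by primer extension and incubated with 200 nM protein in PBS (pH 7.5). The arrays were then scanned and quantified, and every 8-mer was scored from probe intensities.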

Row | Sequence | PBM E-score of 8-mer
1 | GAGCATCC | -0.0765 ± 0.068
2 | CCGTCCAG | -0.237 ± 0.073
3 | TAACGCAA | 0.069 ± 0.078
4 | CCGCGTAG | -0.0638 ± 0.098
5 | GCTAAGCC | -0.104 ± 0.032
6 | GTGCCATA | 0.222 ± 0.024
7 | GATGATGC | 0.0737 ± 0.0083
8 | GGATACTA | -0.211 ± 0.014
9 | ACACAGGC | 0.143 ± 0.033
10 | GAACGTTA | -0.0709 ± 0.057
11 | AAGAGTGG | 0.023 ± 0.052
12 | GATCCCCC | -0.2 ± 0.052
13 | GGAACCAA | -0.103 ± 0.082
14 | CACGGTAA | -0.00562 ± 0.023
15 | GGTCTAGA | -0.139 ± 0.077
16 | CATTACGG | -0.0429 ± 0.061
17 | GCGCATAC | -0.0516 ± 0.01
18 | CTCCCCAA | -0.112 ± 0.042
19 | AATTATTA | 0.0745 ± 0.13
20 | CTCCTCAA | -0.16 ± 0.016
21 | CGCTAGCC | 0.102 ± 0.1
22 | GTTCCCAA | -0.01837 ± 5.7e-05
23 | CCGATATA | -0.257 ± 0.07
24 | ACGTCTAA | -0.0805 ± 0.02
25 | CCTTTTCG | -0.11 ± 0.041

Row | Sequence | PBM E-score of 8-mer
26 | ATCTAAAG | -0.0614 ± 0.066
27 | CCGTTCAG | -0.113 ± 0.032
28 | AGTTGCCG | 0.176 ± 0.0081
29 | CTTAGGCC | -0.193 ± 0.044
30 | CGCAACAC | 0.306 ± 0.024
31 | GCGCAACC | 0.143 ± 0.041
32 | GGCCAGAA | -0.14 ± 0.0097
33 | CGCTTCGA | 0.0258 ± 0.043
34 | CAGACGAA | -0.11 ± 0.033
35 | CGAGCAAA | -0.0935 ± 0.08
36 | AAACCGCG | 0.0876 ± 0.057
37 | CCGAGATA | -0.0195 ± 0.013
38 | ACAACAAA | 0.106 ± 0.012
39 | CCTCGGCA | 0.154 ± 0.051
40 | CTCTGGAA | -0.1313 ± 0.0012
41 | ACTACTTA | 0.0581 ± 0.077
42 | TCCCGGGA | -0.0637 ± 0.047
43 | AAGCACCG | -0.158 ± 0.058
44 | ATAGGGAT | -0.0862 ± 0.032
45 | CACTGGAC | 0.0659 ± 0.052
46 | GCGCCTGA | 0.0277 ± 0.025
47 | GCGAGGAC | 0.166 ± 0.004
48 | CGACGGAA | -0.0954 ± 0.13
49 | GTCACAAC | 0.293 ± 0.0073
50 | AGTTCATA | -0.184 ± 0.028

Row | Sequence | PBM E-score of 8-mer
51 | CTTGCTTC | -0.261 ± 0.0056
52 | CCCCTAGA | -0.209 ± 0.021
53 | AGAAATCA | -0.0375 ± 0.0056
54 | CCACACAC | 0.353 ± 0.018
55 | AACGCGCG | 0.25 ± 0.044
56 | CTCCGGAC | -0.191 ± 0.0068
57 | ACCGAGGC | -0.0843 ± 0.034
58 | GACGGTCA | 0.0624 ± 0.056
59 | GGTCTCGA | -0.115 ± 0.014
60 | ATGGAAAT | -0.16 ± 0.017
61 | GGCAGCGA | 0.123 ± 0.032
62 | GGGATACA | -0.129 ± 0.041
63 | CTACGCAA | -0.167 ± 0.015
64 | CCTAGCAG | -0.0816 ± 0.02
65 | GTTGGTTA | 0.075 ± 0.0027
66 | AGTCTTAT | -0.0567 ± 0.077
67 | AGTTTACG | -0.0588 ± 0.034
68 | AGTGATGG | 0.158 ± 0.014
69 | CACCTGGG | 0.328 ± 0.011
70 | AGCCACGA | 0.0321 ± 0.012
71 | TAGAAAAA | -0.0231 ± 0.006
72 | AACTATGA | -0.112 ± 0.04
73 | GAACGTCC | -0.0438 ± 0.033
74 | CCATCGAC | -0.0348 ± 0.066
75 | ATGGTAAC | -0.0929 ± 0.012

Row | Sequence | PBM E-score of 8-mer
76 | AGGATAAC | 0.0902 ± 0.044
77 | ATCGATAC | -0.0782 ± 0.076
78 | AGGCCATA | -0.0266 ± 0.0079
79 | ACTTAGTG | 0.0407 ± 0.029
80 | GCCACGTA | -0.0016 ± 0.033
81 | GGGAAATA | -0.169 ± 0.013
82 | CTATCTGC | -0.0522 ± 0.014
83 | CCCGCAGC | -0.0148 ± 0.069
84 | CAACGGCA | -0.00794 ± 0.037
85 | GGCAGTTA | 0.0315 ± 0.0055
86 | GATCGCAA | 0.2797 ± 0.00053
87 | CATGCTTC | -0.19 ± 0.07
88 | CGCGGTCC | -0.00405 ± 0.11
89 | AAATGAAC | -0.198 ± 0.019
90 | GACAGATA | 0.143 ± 0.035
91 | GTCATTAA | 0.00316 ± 0.0041
92 | CAGCTACG | -0.036 ± 0.0027
93 | CTAAGGAC | -0.147 ± 0.039
94 | TTAAGTAA | -0.184 ± 0.01
95 | ATTTATGC | -0.113 ± 0.077
96 | GACAAAAC | 0.0697 ± 0.024
97 | ACGCTTAG | 0.117 ± 0.025
98 | AGACTACA | -0.00961 ± 0.00044
99 | AATCGTCT | -0.0595 ± 0.019
100 | CAGGTTCG | 0.0675 ± 0.0036

Row | Sequence | PBM E-score of 8-mer
101 | AGTGTATG | -0.0196 ± 0.045
102 | AGGCGTCA | 0.41 ± 0.005
103 | AAGCATTC | -0.15 ± 0.033
104 | ATTCCGAG | -0.0973 ± 0.067
105 | CGGGGACC | -0.349 ± 0.093
106 | CGGAGGCC | -0.367 ± 0.043
107 | CACTGGCA | 0.0605 ± 0.071
108 | CCAGCTCG | 0.0817 ± 0.089
109 | TCATACAA | 0.0828 ± 0.045
110 | ATATTCTG | 0.0118 ± 0.0024
111 | CTATTGAA | -0.125 ± 0.061
112 | AATACGTC | -0.0254 ± 0.053
113 | CTTACGCA | 0.0993 ± 0.0077
114 | CTAAGGTA | -0.0772 ± 0.058
115 | ACTTGTCC | 0.139 ± 0.015
116 | ATTAGCGA | 0.109 ± 0.096
117 | ATTACATC | -0.113 ± 0.0093
118 | AGATAAGG | -0.105 ± 0.031
119 | AGGTATAT | -0.0323 ± 0.0066
120 | ACAAGCCT | 0.0279 ± 0.036
121 | TAGTGACA | 0.417 ± 0.011
122 | GGTAGCTA | -0.314 ± 0.032
123 | GTCTGCAA | 0.0485 ± 0.0099
124 | AGGGGATC | -0.0989 ± 0.068
125 | ATTGTCAG | 0.0298 ± 0.045

Row | Sequence | PBM E-score of 8-mer
126 | AGCGACCC | -0.119 ± 0.0033
127 | GAGAGACA | -0.0285 ± 0.021
128 | CGTAATCC | -0.0586 ± 0.074
129 | ACTGTACC | -0.175 ± 0.043
130 | AGCCGCAG | -0.132 ± 0.0029
131 | GACGAATA | -0.00716 ± 0.079
132 | CGTACAGA | -0.22 ± 0.072
133 | ATCTTCAA | -0.216 ± 0.015
134 | AATATGAG | -0.105 ± 0.034
135 | AAGGAATG | -0.156 ± 0.034
136 | ACACGCTC | 0.151 ± 0.0097
137 | GGGGCGCA | -0.227 ± 0.038
138 | ATCTAGCC | -0.279 ± 0.0046
139 | ACATTGAA | -0.147 ± 0.048
140 | CAGACTCG | -0.173 ± 0.011
141 | ACCTCAGC | 0.151 ± 0.039
142 | CTTGCCGA | 0.177 ± 0.018
143 | ATTAGCTC | 0.00266 ± 0.0068
144 | CCGCACCG | 0.176 ± 0.024
145 | ATAACCTA | -0.141 ± 0.0093
146 | AGGGCATG | -0.167 ± 0.061
147 | AGCCTACA | -0.0276 ± 0.02
148 | ACCGTGAA | 0.308 ± 0.026
149 | GGGCCTGA | -0.279 ± 0.0039
150 | CACTCGCC | 0.0885 ± 0.056

Row | Sequence | PBM E-score of 8-mer
151 | CAACAGCC | -0.0955 ± 0.027
152 | CCGGTACA | -0.0965 ± 0.044
153 | CACGAAGA | -0.0563 ± 0.034
154 | ATGTCATC | -0.144 ± 0.015
155 | ACAGGTGC | 0.436 ± 0.013
156 | AGTGCCAG | 0.248 ± 0.0097
157 | ACGTAGTA | -0.261 ± 0.0064
158 | ACGGGCGA | 0.158 ± 0.0024
159 | ACTGATGG | -0.00902 ± 0.051
160 | GATTGGAA | -0.238 ± 0.014
161 | AAGTCATA | -0.0733 ± 0.096
162 | GATACTAA | -0.0271 ± 0.017
163 | AGAGGGGA | -0.116 ± 0.05
164 | GTCTCACA | 0.382 ± 0.0069
165 | AACCGGCG | -0.0711 ± 0.075
166 | GCAACCGC | 0.029 ± 0.0016
167 | ATGGAAAG | -0.0132 ± 0.082
168 | ACGCAAGA | -0.0517 ± 0.024
169 | ACAGGTTG | 0.221 ± 0.066
170 | CCGTTTCA | 0.00745 ± 0.022
171 | CCACGCTA | -0.0696 ± 0.069
172 | CAGTGTCA | 0.3068 ± 0.002

Source: the supplement of paper PMC4166925
